Laboratory results reported in the supplement of paper PMC9446081.
Hit rate of the full screen: of about 39,000 compounds, about 220 (0.56%) showed activity. Some of the results follow.

What follows are molecules tested on Escherichia coli K-12 BW25113 (assay: relative growth (OD600 normalised to plate interquartile mean) (fraction); higher = less growth inhibition, active = 0.2 or less). Conditions: 50 µM; LB; incubation time: overnight (16-24 h).
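Also: static incubation at 37 °C against the wild-type strain, values averaged over two biological replicates.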

| SMILES | relative growth |
| --- | --- |
| COc1ccc([Si](C)(C)[C@H]2[C@H](CC(=O)N(CCO)Cc3ccccc3)O[C@@]3(C(=O)N(Cc4ccc(N5C(=O)c6cccc7cccc5c67)cc4)c4ccccc43)[C@@H]2C)cc1 | inactive: 1.04 |
| C[C@@H]1CCCCO[C@@H](CN(C)Cc2ccc(Cl)c(Cl)c2)[C@H](C)CN([C@H](C)CO)C(=O)c2cc(NC(=O)Nc3ccccc3)ccc2O1 | inactive: 1.02 |
| C[C@H](CO)N1C[C@H](C)[C@@H](CN(C)Cc2ccc(C(=O)Nc3ccccc3N)cc2)Oc2ccc(NC(=O)CCC(F)(F)F)cc2C1=O | inactive: 0.963 |
| Cc1noc(C)c1NC(=O)Nc1ccc2c(c1)C(=O)N([C@H](C)CO)C[C@H](C)[C@H](CN(C)CC1CCCCC1)OCCCC[C@H](C)O2 | inactive: 0.994 |
| O=C1CNC(=O)N1C1CCNCC1 | inactive: 0.999 |
| CCOC(=O)NNc1nncc2ccccc12.Cl | inactive: 1.05 |
| CC1(C(=O)O)CCC2(C)CCC3(C)C(=CC(=O)C4C5(C)CCC(OC6OC(C(=O)O)C(O)C(O)C6OC6OC(C(=O)O)C(O)C(O)C6O)C(C)(C)C5CCC43C)C2C1 (configuration not stated) | inactive: 0.97 |
| Cc1ccc(S(=O)(=O)N(C)C[C@@H]2Oc3ccc(NS(=O)(=O)c4c(C)noc4C)cc3CC(=O)N([C@H](C)CO)C[C@@H]2C)cc1 | inactive: 0.989 |
| C[C@@H]1CN([C@H](C)CO)C(=O)Cc2cc(NC(=O)CCN3CCOCC3)ccc2O[C@H]1CN(C)Cc1ccccc1 | inactive: 1.01 |
| C[C@@H]1CN([C@H](C)CO)C(=O)c2cc(NS(=O)(=O)c3cn(C)cn3)ccc2O[C@H]1CN(C)C(=O)Nc1ccc2c(c1)OCO2 | inactive: 1.02 |
| C[C@H](CO)N1C[C@H](C)[C@@H](CN(C)S(=O)(=O)c2ccccc2)Oc2ccc(NC(=O)Cn3cnnn3)cc2C1=O | inactive: 1.01 |
| CC[C@@]1(C)N[C@H](C(=O)O)CS1 | inactive: 1.02 |
| NCC[C@@H]1CC[C@H](NC(=O)C2CC2)[C@H](CO)O1 | inactive: 0.995 |
| Cc1ccc(S(=O)(=O)N2C[C@@H](O)COC[C@H]3O[C@H](CC(=O)NCc4ccc(Cl)c(Cl)c4)CC[C@@H]32)cc1 | inactive: 0.99 |
| C[C@H](CO)N1C[C@H](C)[C@@H](CN(C)C(=O)Nc2ccccc2)Oc2ccc(NS(=O)(=O)c3cn(C)cn3)cc2C1=O | inactive: 0.978 |
| C[C@@H]1CN([C@H](C)CO)C(=O)c2cc(NS(=O)(=O)c3ccc(Cl)cc3)ccc2O[C@@H](C)CCCCO[C@H]1CN(C)S(=O)(=O)c1ccccc1 | inactive: 1.01 |
| CCS(=O)(=O)Nc1ccc2c(c1)C(=O)N(C)[C@H]1CC[C@H](CC(=O)NCCCN3CCOCC3)O[C@H]1CO2 | inactive: 0.983 |
| CC1COc2c(C3(N)CC3)c(F)cc3c(=O)c(C(=O)O)cn1c23.CS(=O)(=O)O (configuration not stated) | active: 0.0476 |
| CC(C)CC#Cc1ccc2c(c1)O[C@@H](CN(C)C(=O)c1ccncc1)[C@H](C)CN([C@H](C)CO)S2(=O)=O | inactive: 1.02 |

| SMILES | relative growth |
| --- | --- |
| C[C@@H]1CCCCO[C@@H](CN(C)C(=O)c2ccncc2)[C@H](C)CN([C@H](C)CO)C(=O)c2cc(NC(=O)C3CCCCC3)ccc2O1 | inactive: 1.02 |
| C[C@H]1CN([C@@H](C)CO)C(=O)Cc2cc(NC(=O)CCC(F)(F)F)ccc2O[C@H]1CN(C)S(C)(=O)=O | inactive: 1.01 |
| CC(=O)N(C)C[C@H]1Oc2cc(C#CCN(C)C)ccc2S(=O)(=O)N([C@@H](C)CO)C[C@H]1C | inactive: 0.994 |
| C[C@@H]1CN([C@@H](C)CO)S(=O)(=O)c2ccc(C#CCN(C)C)cc2O[C@H]1CN(C)C(=O)C1CCCCC1 | inactive: 0.975 |
| C[C@@H]1CN([C@@H](C)CO)C(=O)c2cc(C#CC3(O)CCCC3)cnc2O[C@@H]1CN(C)C(=O)Cc1cccnc1 | inactive: 0.987 |
| CC(C)N1C[C@H](C)[C@@H](CN(C)Cc2ccc(Cl)c(Cl)c2)Oc2c(cccc2-c2cn(-c3ccncc3)nn2)C1=O | inactive: 1.02 |
| Cc1noc(C)c1S(=O)(=O)N(C)C[C@@H]1Oc2ccc(NS(=O)(=O)c3ccccc3)cc2CC(=O)N([C@@H](C)CO)C[C@H]1C | inactive: 1.03 |
| C[C@H]1CN([C@@H](C)CO)C(=O)c2ccccc2-c2ccccc2CO[C@H]1CN(C)Cc1cccc2c1OCCCO2 | inactive: 1.02 |
| COc1cccc(C#Cc2ccc3c(c2)O[C@@H](CN(C)C(=O)c2ccccn2)[C@H](C)CN([C@H](C)CO)S3(=O)=O)c1 | inactive: 1.02 |
| C[C@H](CO)N1C[C@H](C)[C@H](CN(C)S(=O)(=O)c2cn(C)cn2)OCCCC[C@H](C)Oc2ccc(NS(=O)(=O)c3ccc(F)cc3)cc2C1=O | inactive: 1.01 |
| C=CCC[C@H](Cc1ccc(F)cc1)C(=O)OC[C@@H](NC(=O)[C@H](CC=C)CC(=O)N(CCO)Cc1ccccc1)C(C)(C)C | inactive: 1.03 |
| Cc1noc(C)c1NC(=O)N(C)C[C@@H]1OCCCC[C@@H](C)Oc2ccc(NC(=O)Nc3cccc4ccccc34)cc2C(=O)N([C@@H](C)CO)C[C@H]1C | inactive: 1.01 |
| COc1cccc(S(=O)(=O)N(C)C[C@@H]2OCc3cnnn3CCCC(=O)N([C@@H](C)CO)C[C@H]2C)c1 | inactive: 0.955 |
| C=CC1CN2CCC1CC2C(O)c1ccnc2ccc(OC)cc12.O=C(O)C(O)C(O)C(O)C(O)CO (configuration not stated) | inactive: 0.949 |
| COc1ccc(S(=O)(=O)N(C)C[C@H]2OCCCC[C@@H](C)Oc3ccc(NC(=O)Nc4ccc(F)cc4)cc3C(=O)N([C@H](C)CO)C[C@@H]2C)cc1 | inactive: 1.07 |
| C[C@H]1CN([C@@H](C)CO)C(=O)Cc2cc(NC(=O)Nc3ccccc3)ccc2O[C@H]1CN(C)C(=O)Nc1cccc2ccccc12 | inactive: 0.993 |
| Cc1cc(=O)oc2cc(O)c(O)cc12 | inactive: 1.04 |
| COc1ccc(CC2c3cc(OC)c(OC)cc3CC[N+]2(C)CCC(=O)OCCCCCOC(=O)CC[N+]2(C)CCc3cc(OC)c(OC)cc3C2Cc2ccc(OC)c(OC)c2)cc1OC.O=S(=O)([O-])c1ccccc1.O=S(=O)([O-])c1ccccc1 (configuration not stated) | inactive: 0.995 |
